Consider 2 molecules from paper PMC10076392, “Structure of the heterotrimeric membrane protein complex FtsB-FtsL-FtsQ of the bacterial divisome” (Nature Communications, 2023).

Data set [1] concerns the molecule itself. As to the kind of experiment: native gel or EMSA; purified complex in 200 mM NaCl, 20 mM HEPES pH8.0, 0.2% Cymal-5; NativePAGE 4-16% Bis-Tris with G-250, 150 V, 120 min, on ice. A general note: Mobility shift assays separate free from complexed probe on a gel.
The target of data set [2] is T1, FtsB-FtsL heterodimer (E. coli strain K12, UniProt P0A6S5 1-103; P0AEN4 1-121, S3N | R4K | V5L).
T1 construct: FtsB, E. coli strain K12, full length; FtsL, E. coli strain K12, full length, with S3N, R4K, V5L; also called FtsBL; source: E. coli C43, co-expressed with FtsQ from pRSF-FtsBLQ; solubilised membranes, Ni-NTA, Superdex-200; not shown: His6 (that it sits on FtsB is inferred from the cloning order in pRSFDuet-1), N-terminal, kept
T1 sequence (looked up) 1: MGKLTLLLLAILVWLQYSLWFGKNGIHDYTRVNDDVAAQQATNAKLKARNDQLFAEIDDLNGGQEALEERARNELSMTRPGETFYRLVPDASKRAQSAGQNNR
T1 sequence (looked up) 2: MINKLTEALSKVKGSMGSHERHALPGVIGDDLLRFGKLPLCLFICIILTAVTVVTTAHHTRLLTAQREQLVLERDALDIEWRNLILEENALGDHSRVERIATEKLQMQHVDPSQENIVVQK
The data set is described as follows: co-purification (Ni-NTA, SDS-PAGE); FtsB, FtsL and FtsQ co-expressed in E. coli C43; membranes solubilised in detergent; Ni-NTA by the His-tag; ratio of FtsQ over FtsBL from SDS-PAGE band intensities, wild type defined as 100%, three biological replicates. The note with it: partners not purified.

B1: FtsBLQ^T37W mutant complex (complex)
chain 1: MGKLTLLLLAILVWLQYSLWFGKNGIHDYTRVNDDVAAQQATNAKLKARNDQLFAEIDDLNGGQEALEERARNELSMTRPGETFYRLVPDASKRAQSAGQNNR
chain 2: MINKLTEALSKVKGSMGSHERHALPGVIGDDLLRFGKLPLCLFICIILTAVTVVTTAHHTRLLTAQREQLVLERDALDIEWRNLILEENALGDHSRVERIATEKLQMQHVDPSQENIVVQK
chain 3: [about 300 residues with changes omitted]
notes: FtsB, E. coli strain K12, full length; FtsL, E. coli strain K12, full length, with S3N, R4K, V5L; FtsQ, E. coli strain K12, full length; source: E. coli C43, co-expressed, purified (Ni-NTA, Superdex-200) in Cymal-5; copies: + +
As to B1, in data set [1], the binding result is recorded as “binds”.

B2: FtsQ^Y248W (natural protein)
chain: not shown
notes: FtsQ, E. coli strain K12, full length; source: E. coli C43, co-expressed with FtsB and FtsL; solubilised membranes, Ni-NTA
For the molecule B2, the “loss of FtsQ association (ratio of FtsQ over FtsBL, wild type = 100%)” value in data set [2] was 79%.
